Laboratory results: the RNAGym collection of RNA variant scans (doi:10.1093/nar/gkz1192)
Read counts are not given, so values of variants with three or more changes are uncertain.

B1: CPEB3 Ribozyme (parent)
chain: UAACAGGGGGCCACAGCAGAAGCGUUCACGUCGCAGCCCCUGUCAGAUUCUGGUGAAUCUGCGAAUUCUGCUGUAUAUCUC

Variants of: B1
Assay: self-cleavage, relative activity (ratio to wild type); higher = more cleavage; in vitro, sequencing
Summary of the method: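 Libraries of CPEB3 self-cleaving ribozyme mutants came from rounds of error-prone PCR and carried barcodes, which DNA sequencing matched to variants. In vitro transcription used T7 RNA polymerase at 37°C for 5 hours, with a further 15 min in DNase I before EDTA stopped the reaction; the ribozymes cleaved during both steps. The RNA was reverse transcribed with template switching and sequenced on Illumina. Relative activity is the cleaved/total read fraction of a variant divided by that of the unmutated ribozyme, averaged over three batches with at least 5 reads.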
With A45G U69A U72A U78C the self-cleavage was 0.35. Variant A47C U51C U78C has a self-cleavage of 0.26. A45U A56G U72A gave a self-cleavage of 0.18. For A45G U51A A56C U60A, the self-cleavage was 0.21. Work on G46A U51C A65U yielded a self-cleavage of 0.13. A45U U60C A65G showed a self-cleavage of 0.14. A45U U66C U69A gave a self-cleavage of 0.23. In the case of A45G A56G A57G U58C, the self-cleavage is reported as 0.2. For G46C A47G C68A U69C U72C, the self-cleavage was 0.15. A45G C62A U72A showed a self-cleavage of 0.25. Variant A45U U54C A56G A64G U67C has a self-cleavage of 0.23. Work on A47G A57G U72A U74C yielded a self-cleavage of 0.6. In the case of G46A U54A A57U A77G, the self-cleavage is reported as 0.07. For A45G U60C C68U, the self-cleavage was 0.89. A45U A57G U58C showed a self-cleavage of 0.1. Variant A45G A56G U58C has a self-cleavage of 0.52. For A45U U69A U72A, the self-cleavage was 0.28. With A45G U54A U60A U69C U72C the self-cleavage was 0.26. Variant A45G U48C C62A U74C has a self-cleavage of 0.18. In the case of A45G G61A C62G U76C, the self-cleavage is reported as 0.13. A45U A65U C68A showed a self-cleavage of 0.38. In the case of A45U U48A A64G U80C, the self-cleavage is reported as 0.16. A45U A57G U69C gave a self-cleavage of 0.23. A45G G55A U72A U78A gave a self-cleavage of 0.22. For G46U A56G G73A, the self-cleavage was 0.41. In the case of A45U U51A A64G A77U U80A, the self-cleavage is reported as 0.34. With A45G A56U C59U G63A A64C the self-cleavage was 0.02. G46A A47C A75G showed a self-cleavage of 0.11. Work on A45G U60A A65G A77U yielded a self-cleavage of 0.15. A45U A57U A65G U66C U69C U72A showed a self-cleavage of 0.09. A45G A65G U78C showed a self-cleavage of 0.27. A45G U54C U67C gave a self-cleavage of 0.23. A47C A56G U58C U66G showed a self-cleavage of 0.18. A45G U49C U54C U72C U74C showed a self-cleavage of 0.1. With A45G U54C U60C the self-cleavage was 1.19. With A45U U54C U66C U69C the self-cleavage was 0.18. Work on A45G U58C G63A C71G yielded a self-cleavage of 0.23. Variant A47C G53A U72A U74C has a self-cleavage of 0.99. A45U G55A A56G A57G U69A U80C gave a self-cleavage of 0.12. Variant A45G U76C A77G has a self-cleavage of 0.86. Work on A45G A47G U74C yielded a self-cleavage of 0.85. A45G A57U U58A A64G showed a self-cleavage of 0.28. For A47G A56G U69C U78C, the self-cleavage was 0.45. A45G U48C A75G U76A gave a self-cleavage of 0.12. For A45U U67C U80C, the self-cleavage was 0.29. Variant A45U A47G U51C U58C U60A C79A has a self-cleavage of 1.27. Variant A45G U48A U54A A56G U78C has a self-cleavage of 0.07. A47G C62U C71A gave a self-cleavage of 0.29. A45U G73C A75G showed a self-cleavage of 0.78. A45G U66C U80C gave a self-cleavage of 0.44. With A45G U54A U60C U69C the self-cleavage was 0.63. Work on A45G U51C A57G U72G yielded a self-cleavage of 0.51. Work on A45G U58A U66C yielded a self-cleavage of 0.11. With A45G G70C C79U the self-cleavage was 0.33. A45G U51G A64G gave a self-cleavage of 0.69. With A45G U49C U51C U69A the self-cleavage was 0.07. Work on A45G G63A U69A yielded a self-cleavage of 0.36. For A45U A57U C59A, the self-cleavage was 0.2. In the case of A45G U49C U69C U78C, the self-cleavage is reported as 0.08. Work on A45U A65G A77U yielded a self-cleavage of 0.24. In the case of A45U U49C U58A C71U, the self-cleavage is reported as 0.12. Variant A45U U48C U60A has a self-cleavage of 0.63. Variant A45U U66C U80G has a self-cleavage of 0.17. In the case of A45G A47G U69A, the self-cleavage is reported as 0.23. For A45G C50A U54C, the self-cleavage was 0.48. With A45U U58A U69C the self-cleavage was 0.09. A45G U51C A77G showed a self-cleavage of 0.68. Variant A45G A64G U74C A75G has a self-cleavage of 0.95. For A45U U60C A64U A75C, the self-cleavage was 0.25. Work on A45U A56U A65G yielded a self-cleavage of 0.14. For G46A U60C U69C, the self-cleavage was 0.11. Variant A47C U49A U60A A65G has a self-cleavage of 0.14. Work on A47G A57U U78G yielded a self-cleavage of 0.22. For A45U U80C C81U, the self-cleavage was 0.65. Variant A45G U49C U67C has a self-cleavage of 0.18. In the case of A45G C62A A64G, the self-cleavage is reported as 0.26. With A45U U60A U69C U74A the self-cleavage was 0.58. In the case of A45G U60A U80A, the self-cleavage is reported as 0.79. In the case of A45U U58A U69C U72C U80C, the self-cleavage is reported as 0.14. In the case of A45U A64U U74A, the self-cleavage is reported as 0.28. With G46A A64G U76A the self-cleavage was 0.23. Variant A45G U60C U72A U76C has a self-cleavage of 1.29. A45G U49C A56G U78C showed a self-cleavage of 0.87. For G46A U48C C50A U67C, the self-cleavage was 0.08.
